The supplement of paper PMC3334620
Over roughly 33,000 sequences, “E-score (-0.5 to 0.5)” has its median near -0.035; the highest 2% begin near 0.34. Some of the results follow.

Each sequence was assayed against T1, Mot3 (UniProt P54785) (assay: PBM E-score (8-mer binding enrichment) (E-score (-0.5 to 0.5)); higher = stronger / more preferred TF binding; most listed sequences are background and not binding sites). Conditions: protein concentration: 200 nM; construct: GST-full length.
T1 sequence: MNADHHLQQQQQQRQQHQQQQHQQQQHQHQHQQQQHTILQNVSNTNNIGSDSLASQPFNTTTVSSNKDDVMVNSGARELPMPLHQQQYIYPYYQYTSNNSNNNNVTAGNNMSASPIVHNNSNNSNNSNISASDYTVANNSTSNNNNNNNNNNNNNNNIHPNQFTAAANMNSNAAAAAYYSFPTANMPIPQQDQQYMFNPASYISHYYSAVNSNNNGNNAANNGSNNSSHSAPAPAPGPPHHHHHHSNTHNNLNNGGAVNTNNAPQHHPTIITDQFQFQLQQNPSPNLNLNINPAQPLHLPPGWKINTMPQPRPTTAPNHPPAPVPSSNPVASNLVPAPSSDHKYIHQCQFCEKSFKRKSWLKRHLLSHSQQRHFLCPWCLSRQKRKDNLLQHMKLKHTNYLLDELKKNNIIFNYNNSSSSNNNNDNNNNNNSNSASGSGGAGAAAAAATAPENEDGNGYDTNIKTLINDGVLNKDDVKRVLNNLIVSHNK
Experimental: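 Universal 'all 10-mer' protein binding microarrays (Agilent AMADID 015681) probed with GST-tagged S. cerevisiae TFs (full-length or DBD) made by in vitro transcription/translation (PURExpress), about 100-200 nM. Bound TF was detected with fluorescent anti-GST. Each ungapped 8-mer (which stands for itself and its reverse complement) is scored by the PBM enrichment score (E-score), a modified Wilcoxon-Mann-Whitney statistic from -0.5 to +0.5, computed with the Universal PBM Analysis Suite. Scale: above 0.35 generally sequence-specific binding.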

Sequence | PBM E-score
ACCCACGT | 0.0556
CTCTCTGC | -0.112
CGGACAAG | -0.221
CACTCCCG | -0.251
GAGCGACC | -0.321
CAAACCCA | 0.0262
CTAAGAAG | 0.0485
CGTATCCA | 0.00391
GAATAGTA | 0.0165
GAAATGTC | -0.0691
AAGATTGA | 0.035
GGATAAGA | -0.141
AACACGCC | 0.281
AGTAAATC | 0.0325
GCGGGCCA | -0.267
GTGTAATA | 0.375
ATGGCCAA | -0.176
CTCTTGTC | -0.0548
TACATTAA | 0.289
AGATTTAG | 0.135
AATTATCC | 0.0544
ACATGGTA | 0.296

Sequence | PBM E-score
ATTCATGA | -0.0408
CCACCGAA | 0.0128
ATGAGACC | 0.079
ACGCCATC | -0.0834
CAAGGGCA | 0.128
ATCAAAGG | 0.0381
CGCGTTCA | 0.234
ATACATGC | 0.361
CATGCCGG | -0.0291
GCAGGAAC | 0.463
CTATGACA | 0.0633
GTACACAA | 0.323
GTACAACA | 0.297
ACGATGGC | -0.161
AACAGAAA | 0.108
CGTCTTGA | -0.139
AGTGCGAC | -0.137
CGAAAGAA | 0.00039
AGCGAGGG | -0.275
ACCCGAGG | -0.174
TGTGTTAA | 0.401
TACTGGGA | 0.0168

Sequence | PBM E-score
CTCGTTGC | 0.246
ATGGTTTA | -0.0389
CCATTATA | -0.0283
GATCATCA | -0.0369
AGGCGACC | 0.215
GCCAGCCC | -0.0527
CCGTAAAC | 0.0293
CCATGGAC | -0.152
ATCGATCA | -0.0672
TCACCTGA | -0.0449
ACAGAAGT | -0.0833
CGAGCCTC | -0.391
CCGCAGGA | 0.0411
ACGAAGGC | 0.285
ACCGAAGC | -0.108
ATCGCGCG | 0.0484
CGCCGATA | -0.116
ACGCCTCT | -0.0227
ACATTAGG | 0.226
GGCCTGAC | -0.288
ACTGGAAA | -0.0414
GACAAGCA | -0.0222

Sequence | PBM E-score
GAGCGAGA | -0.0812
ATTCTTTC | -0.0219
AAGCTCGT | -0.0262
CACTGGAA | -0.0105
GAACATTC | 0.0734
AATTTGCG | 0.0221
GCTGTACA | 0.00276
ATGTGGGA | -0.142
CGAGGGTC | -0.201
CTTGACAA | 0.223
GAGGCGAA | -0.144
GAGGCTAC | -0.201
AATAGGCA | 0.479
AACAGCGA | -0.055
ATGAACAA | 0.151
GAAGGACC | -0.328
GAATAGCC | -0.281
CGAGTTTC | -0.189
AGTGGTTG | 0.0543
ACGGCGTG | 0.0736
TAGCAACA | 0.102
CCGCTAGC | -0.29

Sequence | PBM E-score
ACCTTACC | 0.105
AGCTGTAT | -0.107
GGACGCGA | -0.126
CCTCTGCC | -0.287
ACCAATAG | -0.0857
AAGCACCA | -0.1
AATGCCCG | -0.316
ATTTGCCG | 0.0365
CTCTCCTA | 0.00346
AACATACG | 0.237
AGTGCTTG | -0.00398
CGAATGTC | -0.114
TCCATGCA | 0.0555
CACTCCGA | -0.15
AGCACGCT | -0.191
ACTCTACA | 0.174
ACGAAGGA | 0.0632
ACTGTAGG | 0.248
TCTTAAAA | -0.00181
CTTAGTAA | 0.0949
GTTATGGA | 0.134
TCATTAAA | 0.159
